This note sets out measurements from ChEMBL document CHEMBL1201862, “PubChem BioAssay data set” (2004).

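48-hour exposure; five concentrations; linearly interpolated endpoints. At the GI50, growth is halved.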 The source made the active and inactive calls. Rule as the data show it: active = GI50 up to about 1.1 µM and inactive = higher.

For the assay, the system named is NCI-H322M. As to the kind of experiment: NCI-60 cell line screen, 48 h.
For the molecule `Oc1cc(-c2ccccc2Cl)nc2cc3c(cc12)OCO3`, the GI50 is active: 0.117 µM.
As to `C#CCOCCCC(=O)O`, the GI50 was inactive: > 100 µM.
Then `NS(=O)(=O)c1ccc(NC2(C(=O)O)CCCC2)cc1`, with inactive: > 100 µM.
With `OC(COc1ccccc1)CN1CCCCC1` (configuration not stated), the GI50 was inactive: > 100 µM.
Then `COC(=O)C(Cc1c[nH]c2ccccc12)NC1=Nc2ccncc2S(=O)(=O)N1c1ccccc1` (configuration not stated), with inactive: 19.9 µM; and `O=C1CC(C(CC(=O)c2ccccc2)c2ccccc2)C(=O)c2ccccc2N1` (configuration not stated), with inactive: 54.6 µM; and `O=C(N/N=C(COc1ccccc1Cl)\N=C\c1ccncc1)c1ccncc1`, with inactive: > 100 µM.
For `CCOC(=O)C1(C#N)C(c2ccccc2)CC(O)(c2ccc(OC)cc2)C(C(=O)c2ccc(OC)cc2)C1c1ccccc1` (configuration not stated), the GI50 was inactive: > 100 µM.
As to `CC1OC(OCC2COC(O)(Oc3c(-c4ccc(O)c(O)c4)oc4cc(O)cc(O)c4c3=O)C(O)C2O)C(O)C(O)C1O` (configuration not stated), the GI50 is inactive: > 100 µM.
Then `CC(C)(C)[C@H]1CCC2(OCCO2)[C@](O)(CCCO)C1`, with inactive: > 100 µM; and `Cc1ccc(NC(=S)N/N=C(/c2ccccc2)c2ccccn2)cc1`, with active: < 0.01 µM.
As for `Cc1cccc(/C=N/NC(=S)NCCc2ccccn2)n1`, the GI50 is inactive: 45.5 µM.
Then `CC(C)C(=O)/C=C/c1c(Cl)cccc1Cl`, with inactive: 5.37 µM; and `COc1ccccc1/C=C\c1cnnc2ccccc12`, with inactive: > 10 µM; and `CCOC(=O)c1cn(CC)c(=O)n2c1nc1ccccc12`, with inactive: > 100 µM.
Consider `CC1(C)N=C(C2CCCN2C(=O)OCc2ccccc2)OC1=O` (configuration not stated), for which the GI50 is inactive: > 100 µM.
Take `COC(=O)CC1CN(C(=O)OCc2ccccc2)C(C)(C)O1` (configuration not stated): the GI50 was inactive: > 100 µM.
With `CCC1=CCN(c2cc(C)ccn2)OC1c1ccc(OC)cc1` (configuration not stated), the GI50 was inactive: 60.4 µM.
As for `CCCCOc1ccc(S(=O)(=O)N/C(N)=N/c2ccc(Cl)cc2)cc1`, the figure is inactive: 13.9 µM.
With `COc1ccc(-c2cc(-c3ccc(Nc4ccnc5cc(Cl)ccc45)cc3)nc(N)c2C#N)cc1`, the GI50 was inactive: > 100 µM.
For the molecule `O=c1oc2ccc3ccccc3c2cc1-c1cn2c(n1)sc1ccccc12`, the GI50 is inactive: > 100 µM.
Consider `N#Cc1sc2c(c1O)c(=O)n(-c1ccccc1)c(=S)n2-c1ccccc1`, for which the GI50 is inactive: > 100 µM.
Then `CCN(CC)CCN(C(=O)C(C)(C)C)c1ccccc1N`, with inactive: > 100 µM; and `NS(=O)(=O)c1ccc(NC(=O)Cc2nc3ccccc3s2)cc1`, with inactive: 16.4 µM.
For `C[C@H]1COC2(c3ccccc3)CCC(=O)N12` (some centres not stated), the GI50 is inactive: > 100 µM.
As for `[N-]=[N+]=NC(c1cn(C2CC(O)C(CO)O2)c(=O)[nH]c1=O)C(Br)Br` (configuration not stated), the figure is inactive: > 100 µM; as for `COCCN(C(=O)c1ccccc1)C1CCC(=O)c2[nH]c3ccccc3c21` (configuration not stated), inactive: 8.13 µM; as for `CC[C@]1(c2ccc3c(c2)OCO3)C=[N+]([O-])O[C@H](OC2CCCC2(c2ccccc2)c2ccccc2)[C@@H]1OC(C)=O` (some centres not stated), inactive: 2.51 µM.
With `CC(C)(C)[Si](C)(C)OCC1OC(n2cnc3c(N)ncnc32)CC1O` (configuration not stated), the GI50 is inactive: > 100 µM.
With `C#CC(O)(c1nc2ccccc2s1)c1nc2ccccc2s1`, the GI50 is inactive: 27.1 µM.
As to `O=C1CC(=O)NC(NN2C(=O)/C(=C/c3ccc(Cl)c(Cl)c3)N=C2c2ccccc2)=N1`, the GI50 was inactive: 30.1 µM.
As for `Nc1ccc(/C=C/c2ccnc3ccccc23)cc1`, the figure is inactive: 23.1 µM; as for `CC1(C)N=C(N)N=C(N)N1c1cccc(OCc2cccc(N)c2)c1`, inactive: 75.2 µM; as for `N#Cc1nc(CCN2C(=O)c3ccccc3C2=O)oc1N`, inactive: > 100 µM.
Turning to `Cc1ccc(Cl)cc1/N=N/C(=O)NNc1cc(Cl)ccc1C`, the GI50 is inactive: 28.3 µM.
On to `Cc1ccc(C(=O)N2CCCCC2)cc1/N=N/N(C)C`, for which the GI50 is inactive: > 100 µM.
As for `C/C(C[n+]1ccccc1)=N\N=C(N)N`, the figure is inactive: > 100 µM; as for `Cc1ccccc1S(=O)(=O)OC1NS(=O)(=O)c2ccccc21` (configuration not stated), inactive: > 100 µM; as for `CCCCCCc1ccc(C(=O)NO)cc1`, inactive: 30.6 µM.
For `CC(NC(NC(C)C12CC3CC(CC(C3)C1)C2)=C(C(Cl)=C(Cl)Cl)[N+](=O)[O-])C12CC3CC(CC(C3)C1)C2` (configuration not stated), the GI50 was inactive: > 83.4 µM.
For `O1C2C1C1OC1C1OC1C1OC21` (configuration not stated), the GI50 was inactive: > 100 µM.
Then `c1ccc2c(c1)CCN2CCc1c[nH]c2ccccc12`, with inactive: > 10 µM.
Consider `CC(C)(C)c1nc2c(o1)/C(=N\c1ccccc1)c1ccccc1C2=O`, for which the GI50 is inactive: 17.1 µM.
As for `O=C1CC(C(COCc2ccccc2)OCc2ccccc2)CC(=O)N1` (configuration not stated), the figure is inactive: > 100 µM.
Then `CC1(C)C(=O)/C=C\C(=O)C(C)(C)C2=CC=C(O2)C(C)(C)C(=O)C(Br)C(Br)C(=O)C(C)(C)C2=CC=C1O2` (configuration not stated), with inactive: > 100 µM.
Then `C(#CC1(Nc2ccccc2)CCN(Cc2ccccc2)CC1)C1(Nc2ccccc2)CCN(Cc2ccccc2)CC1`, with inactive: > 31.6 µM; and `Cc1ccc(O)c(-c2cc(-c3cccc(Br)c3)c(C#N)c(N)n2)c1`, with inactive: 29.6 µM.
`CCOC(=O)Cn1c(=O)[nH]c(=O)c2[nH]cnc21`: the GI50 is inactive: > 100 µM.
Then `COc1cc(C(=O)Nc2cc(C(N)=O)cc(OC)c2OC)cc(NC(=O)/C=C/c2ccccc2)c1OC`, with inactive: 45.1 µM; and `COC1(C)C(=O)N2C1N(C(=O)OCc1ccccc1)CC2(C)C` (configuration not stated), with inactive: > 100 µM.
As for `O=C(Nc1ccc2nc(O)n[n+]([O-])c2c1)C(F)(F)F`, the figure is inactive: > 100 µM.
Then `Nc1ccc2c(c1)S(=O)(=O)c1cc(N)ccc1-2`, with inactive: > 100 µM.
As for `O=C(O)c1cccc(F)c1C(=O)c1ccc2ccccc2c1`, the GI50 was inactive: > 100 µM.
`COc1ccc(-c2ccc(CC(=O)O)cc2)cc1OC`: the GI50 is inactive: > 100 µM.
As for `CN1CCN(C(=S)N(C(=O)c2ccc(Cl)cc2)C2CCCCC2)CC1`, the figure is inactive: > 100 µM.
Then `CCCCNC(=S)Nc1nc(C(=O)NNS(=O)(=O)c2ccccc2)cs1`, with inactive: 31.7 µM.
For the molecule `CCOC(=O)N/N=C(/N)c1cccc([N+](=O)[O-])c1`, the GI50 was inactive: > 100 µM.
Regarding `C/C=C(\C)C(=O)OC1C2C(C)=CC(=O)C(O)C2(C)C2C3(O)OCC24C1OC(=O)C(OC(C)=O)C4C(C)C3O` (configuration not stated), the GI50 was active: 0.107 µM.
As for `O=C(O)CC(O)(c1ccccc1C(=O)O)c1cccc2ccccc12` (configuration not stated), the figure is inactive: > 100 µM; as for `CC1(C)C(=O)/C=C\C(=O)C(C)(C)C2=CC=C(O2)C(C)(C)C(=O)/C=C\C(=O)C(C)(C)C2=CC=C1O2`, inactive: > 100 µM; as for `C[N+](C)(C)CC(=O)N/N=C(\C(=O)NC1=C(Cl)C(=O)c2ccccc2C1=O)C(C#N)c1nc(-c2ccc([N+](=O)[O-])cc2)cs1` (configuration not stated), inactive: 10.7 µM.
Then `C=C1C(C(O)C[C@H](C)C2O[C@@]3(CCCCO3)CCC2C)O[C@@H]2CCC3(CCC(/C=C/[C@@H](C)C4CC(C)=CC5(O4)O[C@H](C[C@](C)(O)C(=O)O)CCC5O)O3)OC2[C@@H]1O` (some centres not stated), with active: 0.00459 µM; and `OC[C@H]1C[C@@H]2Cc3ccccc3N2N1`, with inactive: > 100 µM; and `C#CCOCn1cnc2ncnc(Cl)c21`, with inactive: > 100 µM.
Then `CC(=O)c1c2c(cc3c1CC1(Cc4cc5c(cc4C1)C(=O)CCC5)C3)CCCC2` (configuration not stated), with inactive: 30 µM; and `O=C1c2ccccc2C(=O)c2c(NC(=O)C3CC3)ccc(NC(=O)C3CC3)c21`, with inactive: > 100 µM.
For `C[n+]1c2ccccc2c(/C=N\NS(=O)(=O)c2ccc(O)c(C(=O)O)c2)c2ccccc21`, the GI50 was inactive: 41.1 µM.
As for `CCOC(=O)C1=C(c2ccccc2)N(C(C)=O)Cc2ccccc21`, the figure is inactive: 21.5 µM.
For the molecule `CCN(CC)c1ccc(/N=N\c2ccc(-c3nc4ccc[n+](C)c4s3)cc2)cc1`, the GI50 was inactive: 12.6 µM.
As for `COc1ccc(CCCNC(=O)c2cc(OC)c(OC)cc2CCO)cc1OC`, the figure is inactive: > 100 µM; as for `C=CC1=C(C)c2cc3[nH]c(c4c5nc(cc6[nH]c(cc1n2)c(C)c6CC)C(C)=C5C(=O)[C@@H]4C(=O)OC)[C@@H](CCC(=O)O)[C@@H]3C`, inactive: 22.8 µM.
Then `N#CC(c1ccccc1)N(CCOCCOCCN(C(=O)c1ccccc1)C(C#N)c1ccccc1)C(=O)c1ccccc1` (configuration not stated), with inactive: > 100 µM; and `Cc1c(Cc2ccccc2)n(COCCCO)c(=O)[nH]c1=O`, with inactive: > 100 µM.
Regarding `CC(C)=CCC[C@@H](C)C1=C(O)C(=O)C(C)=C(N[C@H](C)c2ccccc2)C1=O`, the GI50 is inactive: 5.09 µM.
Take `COc1ccc2nc3cc(Cl)ccc3c(Nc3ccccc3-c3ccccc3Nc3c4ccc(Cl)cc4nc4ccc(OC)cc34)c2c1`: the GI50 is inactive: 38.9 µM.
Consider `CC1=C[C@]2(O)C(=O)[C@H](C)C[C@H]3[C@@H](CC[C@@](C)(O)/C=C\2C1=O)C3(C)C`, for which the GI50 is inactive: 45.3 µM.
Then `CCC(/C=C/c1ccccc1)=N\N=C(\C=C\c1ccccc1)CC`, with inactive: > 100 µM; and `Cc1ccc(-n2nnc(C(N)=O)c2O)cc1`, with inactive: > 100 µM; and `C1=Cc2nc1c(-c1ccccc1)c1ccc([n-]1)c(-c1ccccc1)c1nc(c(-c3ccccc3)c3ccc([n-]3)c2-c2ccccc2)C=C1.[Zn+2]`, with inactive: > 100 µM.
Consider `CCOC(=O)[C@@]12C[C@](/C=C/OC)(O[Si](C)(C)C)[C@@]13c1cc(OC)c(OC)cc1CCN3C(=O)C2O` (some centres not stated), for which the GI50 was inactive: > 100 µM.
Then `NC(CP(=O)(O)O)C(=O)O` (configuration not stated), with inactive: > 100 µM.
As for `Cn1ccc(C(=O)NCCOCCNC(=O)c2ccn(C)c(=O)c2O)c(O)c1=O`, the figure is inactive: > 100 µM.
